# Assay results taken from the supplement of paper PMC11417369.
# The other results are listed elsewhere or left out.
# Tested on: PfAP2-HC AP2 domain (GST-tagged)
# Test: gcPBM binding intensity (ln(normalized median fluorescence intensity)); higher = stronger DNA binding
# Summary of the method: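 Alexa488 anti-GST antibody, scanned at 488 nm, detected GST-tagged P. falciparum DNA-binding domains that had been expressed in E. coli and incubated for 1 h on an Agilent 4 × 180k array. The array carried primer-extended double-stranded 36-bp intergenic genomic probes and negative controls. Binding intensity is the highest Masliner-normalised natural-log median intensity across replicate spots of either orientation of each probe.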
row,Sequence,gcPBM binding intensity (ln)
1,AATCTTTTTAAATCTTGATTAATTTCGGGTATATAT [TGCATGCA_negctrl_site107],9.45
2,TACAAGAACAAAAAATGTACGAAATAATTACAAATA [XGTACX_site5824],9.9
3,AAATTAAATATTATATTAATTCTTAAATTTTTTTTT [CACACA_negctrl_site439],9.2
4,ATACAATAATATAAATGTACAAATTATATCTTCATT [XGTACX_site8994],9.74
5,AAACATATGGTATTTAAACACACAAAAAAGAAAGAA [CACACA_site8239],10.2
6,ATGTTGTGGATATATACACACATACATATTTATATA [CACACA_site6857],9.79
7,AAGTGTTCTTGTTATACACACACATATATATATATA [CACACA_site8251],9.94
8,TAGCATGATTTGCCTTGTACACAACCGTTTTAATAA [XGTACX_site7911],9.69
9,TATGATAAATATGGAGCACACACACCGAAACATACA [CACACA_site8031],10.8
10,TGTGCTATATTCATATGTACATATAATTATTATATA [XGTACX_site3549],9.7
11,ATAAAATAAAAGTGTACACAAGAAAATATGTTATGT [CACACA_site6033],10
12,ATAATATATTTATAATGTACATAAGAACAAATTAAA [XGTACX_site1745],9.71
13,ACGTTTGATACACATAAAGTTTTCCTTTGAATGTAC [CACACA_negctrl_site106],9.61
14,GGTATATTAAAATAGGTGCATAAAACTAAGAGAAAA [GTGCAC_site9781],9.73
15,AAAAATTACCTGACTTGTACATAATTTAAGAACAAT [XGTACX_site6233],9.57
16,AATAATACACAATTTTGTACGTATTTAAAATATATT [XGTACX_site45],9.74
17,TATTTATGAGAAATAGTGCAAAGATATGATCTTTAA,9.52
18,AATTAAAAACATTTCACACATAAAAATGAAATATAT [CACACA_site5199],9.56
19,TAAAATATATAATAATGTACATATTTTTATTTAGGA [XGTACX_site4987],9.57

row,Sequence,gcPBM binding intensity (ln)
1,AAATTATAATATAATACACACATAAAAAAAAAATCA [CACACA_site3634],10.1
2,TATATATATATATATTGTACACATATATATTTACGA [XGTACX_site4791],9.57
3,TGATTCTTTTGTATCACACACACTTAGTTTAATTTT [CACACA_site2404],10.2
4,TTTTTTTATTATCATGCACACATTTTTTTTTTTTAC [CACACA_site2253],10.2
5,ACTTGACACGGACACACACACATATATAAAAAAAAA [CACACA_site4576],10.5
6,TCCTTTATTTTTAAATGTACAAATATTATCTCCTCA [XGTACX_site5856],9.5
7,ATAATAAAAATAAGAGAATAAAAATGCAATTTAATG [CACACA_negctrl_site878],9.71
8,AACTCACATAAATTCACACAAATGTATATTCATATA [CACACA_site4554],9.58
9,ATTTATAATGTGTATACACACATATATAGATTTGCT [CACACA_site6440],9.8
10,ATTGATCGGATAAAATGTACAAATATATATATATAT [XGTACX_site7345],9.74
11,TCTTTTTTTATTTTATTTTTTTTTTTTAAATAATTC [TGCATGCA_negctrl_site372],9.52
12,CATATTAATATTATGGGTACATATAAATTTACATTC [XGTACX_site687],9.59
13,ATTATAATATTGTTATGTACATAAAAATTATTGAAT [XGTACX_site4476],9.82
14,AAAACATAAATACATACACACATAATATATATTAAT [CACACA_site109],9.97
15,AAAAAATAATAAATCACACATATTATATATATATAT [CACACA_site5838],9.64
16,AACATGAAAGATAGCAAAAAAAAAAAAAAAAAAAAA [TGCATGCA_negctrl_site607],8.52
17,CCCGTAAATTATGAGTGTACGTTATTTTTTAAAATG [XGTACX_site3946],9.46
18,ACATATACATATATATGTACATAAATATATATATAT [XGTACX_site8630],9.72
19,GTGCATATCTGATATACACACAATAAAATAGTATGT [CACACA_site7203],9.87

row,Sequence,gcPBM binding intensity (ln)
1,AATTATATATTTGAGAGTACATATGTAATGTTTATA [XGTACX_site6970],9.8
2,CATATATTATTTATACGTACTAATAAAATAAATCAA [XGTACX_site1030],9.36
3,TATGATACATAAATATGTACGTATAATATATATTTA [XGTACX_site7002],9.73
4,TGCAAGCTTATATAGGTGCACATGTATACGTGTTCA,9.72
5,TATATACACAAACACACACACACATACACCCACATA [CACACA_site8504],10.8
6,TATTAAAATTAAAAAAAAAAAAAAAAGCAATAAAAA [XGTACX_negctrl_site426],9.41
7,TATGTAGTCACAAGGTGTACACTTTAACAAATTATG [XGTACX_site8792],9.62
8,TTCTAACTTTTAAACACACAAATATAAATAAGTATA [CACACA_site7473],9.54
9,GAACGTATCATGTGTACACACAAATTGTTTTTTTTT [CACACA_site2020],10.1
10,AAATGAACAAGTGGCACACACACATTATAACTAATT [CACACA_site9048],10.3
11,AAGAATAATAATAAATGTACACAATATTATATATAT [XGTACX_site5525],9.76
12,AAGCTTCATTAATATACACACATATATGCGTATATT [CACACA_site3695],9.91
13,TATATAATTATAAGAACACACATATATATATATATA [CACACA_site2472],9.49
14,AAATTTGAAGAATATTGTACGCATAATAATTAAATA [XGTACX_site4300],9.75
15,TGTATGAAATATATTACACACATATAAAATCTATAT [CACACA_site6514],9.76
16,TTTTTAATTTTTTGTTGTACATATAATATATTATTA [XGTACX_site4903],9.67
17,TTGATGTTGGTAGGATGTACGGTACCGGTAAAGTTT [XGTACX_site7705],9.6
18,ATGCTTTTTAAATGATTGCACTAGATTGTAATATGT [GTGCAC_site9666],9.66
19,TATATATATATTTTAACACACACATATATATATTTA [CACACA_site8892],10
